Data: paper PMC9619224
These are yes or no findings as the source states them, for the method shown. Binding seen in cells or lysates may run through a third protein. Some results given as binding are weak or reduced against the parent protein; the word gives no strength.

Protein sequences, listed by entry. Tags and fused reporters are not part of them. Residues count along the entry.
UniProt P34971: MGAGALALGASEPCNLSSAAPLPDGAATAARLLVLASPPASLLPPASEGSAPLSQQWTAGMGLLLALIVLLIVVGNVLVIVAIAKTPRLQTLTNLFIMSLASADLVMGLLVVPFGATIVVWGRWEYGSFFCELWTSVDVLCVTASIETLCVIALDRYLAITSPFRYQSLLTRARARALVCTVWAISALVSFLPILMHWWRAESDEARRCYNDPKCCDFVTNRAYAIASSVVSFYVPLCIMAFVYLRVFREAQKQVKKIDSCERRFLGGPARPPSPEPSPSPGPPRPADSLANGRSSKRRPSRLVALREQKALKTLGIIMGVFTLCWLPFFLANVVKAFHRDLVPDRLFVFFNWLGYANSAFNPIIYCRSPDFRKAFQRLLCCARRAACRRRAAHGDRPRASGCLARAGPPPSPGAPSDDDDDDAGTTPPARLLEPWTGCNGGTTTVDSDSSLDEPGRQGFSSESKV
UniProt P56450: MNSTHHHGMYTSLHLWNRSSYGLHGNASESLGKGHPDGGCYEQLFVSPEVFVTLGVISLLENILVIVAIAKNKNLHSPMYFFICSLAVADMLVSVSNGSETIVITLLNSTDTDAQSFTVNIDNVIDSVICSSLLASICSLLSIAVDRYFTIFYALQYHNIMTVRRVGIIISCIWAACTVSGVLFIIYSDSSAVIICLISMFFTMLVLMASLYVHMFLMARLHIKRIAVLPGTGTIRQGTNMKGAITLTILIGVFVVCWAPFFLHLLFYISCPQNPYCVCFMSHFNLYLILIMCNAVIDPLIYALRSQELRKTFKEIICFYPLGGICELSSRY
UniProt P35347, residues 24-415: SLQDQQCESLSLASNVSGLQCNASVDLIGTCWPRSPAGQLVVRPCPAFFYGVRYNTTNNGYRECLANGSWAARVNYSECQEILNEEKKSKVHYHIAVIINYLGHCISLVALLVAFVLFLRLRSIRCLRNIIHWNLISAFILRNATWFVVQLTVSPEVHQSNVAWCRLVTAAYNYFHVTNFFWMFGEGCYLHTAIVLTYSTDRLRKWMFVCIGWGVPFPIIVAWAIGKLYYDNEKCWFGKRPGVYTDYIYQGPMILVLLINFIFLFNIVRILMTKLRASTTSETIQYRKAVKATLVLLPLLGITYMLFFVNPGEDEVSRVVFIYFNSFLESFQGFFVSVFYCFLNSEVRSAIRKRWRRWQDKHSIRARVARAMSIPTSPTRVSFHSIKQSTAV
UniProt Q8BZA7: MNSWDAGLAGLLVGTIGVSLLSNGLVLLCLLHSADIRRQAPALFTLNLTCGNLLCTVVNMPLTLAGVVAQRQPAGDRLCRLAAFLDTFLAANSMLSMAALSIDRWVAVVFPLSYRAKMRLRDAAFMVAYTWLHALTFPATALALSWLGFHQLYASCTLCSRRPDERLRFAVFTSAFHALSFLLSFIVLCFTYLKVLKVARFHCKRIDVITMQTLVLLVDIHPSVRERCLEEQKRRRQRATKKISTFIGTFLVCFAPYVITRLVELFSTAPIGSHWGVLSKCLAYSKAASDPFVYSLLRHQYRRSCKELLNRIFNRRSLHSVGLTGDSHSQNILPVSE

B1: melanocortin receptor accessory protein MRAP1 (protein, UniProt Q9D159 1-127)
chain: MANGTDASVPLTSYEYYLDYIDLIPVDEKKLKANKHSIVIALWLSLATFVVLLFLILLYMSWSGSPQMRHSPQPQPICSWTHSFNLPLCLRRASLQTTEEPGRRAGTDQWLTQQSPSASAPGPLALP
B2: melanocortin receptor accessory protein MRAP2 (protein, UniProt D3Z1Q2 1-207)
chain: MEMSAQRLASNRTSPQSPSNSDYTWEYEYYEIGPVSFEGLKAHKYSIVIGFWVGLAVFVIFMFFVLTLLTKTGAPHQDNAESSERRFRMNSFVSDFGKPLESDKVFSRQGNEESRSLFHCYINEVEHLDRVKVCHQTTAIDSDVHLQEASRSSGRPEEELARFMKFDIPNFVNTEQSSFGEDDLLISEAPVLLENKPVSQTSRIDLD

Experiments:
Test in all cases: co-IP; HEK293T cells transfected with 3xHA-GPCR and 2xFlag-MRAP1 or MRAP2; GPCR immunoprecipitated with rabbit anti-HA, Protein A/G agarose, overnight at 4°C; MRAP detected by mouse anti-Flag blot
[1] = molecular target: Adrenergic receptor, beta 1 (mouse) (UniProt P34971)
[2] = molecular target: Melanocortin 4 receptor (mouse) (UniProt P56450)
[3] = molecular target: Corticotropin releasing hormone receptor 1 (mouse) (UniProt P35347)
[4] = molecular target: T1, Complement component 3a receptor 1 (mouse) (UniProt O09047)
T1 sequence: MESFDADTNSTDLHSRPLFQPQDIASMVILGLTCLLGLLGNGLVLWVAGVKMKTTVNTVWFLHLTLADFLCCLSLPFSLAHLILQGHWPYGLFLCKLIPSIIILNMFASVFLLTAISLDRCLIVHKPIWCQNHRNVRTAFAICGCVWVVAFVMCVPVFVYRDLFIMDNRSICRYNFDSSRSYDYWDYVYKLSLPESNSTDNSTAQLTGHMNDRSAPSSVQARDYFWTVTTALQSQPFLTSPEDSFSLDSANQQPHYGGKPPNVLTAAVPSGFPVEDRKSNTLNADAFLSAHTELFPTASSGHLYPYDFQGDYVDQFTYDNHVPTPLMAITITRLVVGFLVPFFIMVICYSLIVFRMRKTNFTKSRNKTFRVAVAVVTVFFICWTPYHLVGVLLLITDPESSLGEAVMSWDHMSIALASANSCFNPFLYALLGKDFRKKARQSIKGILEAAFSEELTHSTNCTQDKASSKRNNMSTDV

[5] = molecular target: T2, Neuropeptide Y receptor Y5 (mouse) (UniProt O70342)
T2 sequence: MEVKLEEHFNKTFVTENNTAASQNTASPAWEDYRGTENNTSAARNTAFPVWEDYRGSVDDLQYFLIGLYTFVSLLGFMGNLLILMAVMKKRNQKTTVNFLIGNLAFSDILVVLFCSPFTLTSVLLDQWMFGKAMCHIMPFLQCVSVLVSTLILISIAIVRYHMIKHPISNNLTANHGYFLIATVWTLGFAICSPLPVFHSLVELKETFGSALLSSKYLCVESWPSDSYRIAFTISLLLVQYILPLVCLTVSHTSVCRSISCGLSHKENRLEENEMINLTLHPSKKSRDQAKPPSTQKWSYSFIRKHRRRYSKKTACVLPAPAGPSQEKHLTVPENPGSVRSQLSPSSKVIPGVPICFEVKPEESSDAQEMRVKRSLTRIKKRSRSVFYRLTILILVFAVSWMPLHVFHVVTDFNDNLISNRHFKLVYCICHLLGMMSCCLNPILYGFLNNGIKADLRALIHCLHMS

[6] = molecular target: G protein‐coupled receptor 26 (mouse) (UniProt Q8BZA7)

Binder	binding [1]	binding [2]	binding [3]	binding [4]	binding [5]	binding [6]
B1	binds	binds	binds	no binding	no binding	binds
B2	binds	binds	binds	binds	binds	binds
